These results are taken from PubChem BioAssay AID1159614 (National Center for Advancing Translational Sciences (NCATS), 2016).

Structures are written as SMILES. Among all 45,000 compounds or so, about 65 (0.1%) were called active. The call rests on the fitted dose curve; in most records, active means well fitted activation curve with a large enough effect; inconclusive means small, poorly fitted or top-dose-only effect; inactive means no such curve, though single readings can be large or run the other way. The list shows a part of the results.

The target of this assay is Galactocerebrosidase (Homo sapiens) (UniProt P54803). Nature of the assay: A Novel Cell-Based Assay to Identify Small Molecules for B -Galactocerebrosidase. Further: 0% is about no effect; nearly all actives have a fitted effect of over 65% in size. Conditions: 145M-Twi-hGALC-G270D cells (Twitcher mouse brain line with human GALC G270D), HMU-beta-Gal fluorescence, 48 h; series mostly up to 57.5 µM; activation: at the top concentration. The essentials: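 Fluorescence readout: HMU-β-gal cleavage by mutant GALC (0.1 mM final, citrate/phosphate pH 5.2 with 1 mg/mL taurocholate), stopped with carbonate/bicarbonate plus Triton X-100. Cells: murine Twitcher 145M-Twi expressing human G270D GALC; qHTS for activators.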
Sequence of UniProt P54803 (P54803 whole entry, looked up): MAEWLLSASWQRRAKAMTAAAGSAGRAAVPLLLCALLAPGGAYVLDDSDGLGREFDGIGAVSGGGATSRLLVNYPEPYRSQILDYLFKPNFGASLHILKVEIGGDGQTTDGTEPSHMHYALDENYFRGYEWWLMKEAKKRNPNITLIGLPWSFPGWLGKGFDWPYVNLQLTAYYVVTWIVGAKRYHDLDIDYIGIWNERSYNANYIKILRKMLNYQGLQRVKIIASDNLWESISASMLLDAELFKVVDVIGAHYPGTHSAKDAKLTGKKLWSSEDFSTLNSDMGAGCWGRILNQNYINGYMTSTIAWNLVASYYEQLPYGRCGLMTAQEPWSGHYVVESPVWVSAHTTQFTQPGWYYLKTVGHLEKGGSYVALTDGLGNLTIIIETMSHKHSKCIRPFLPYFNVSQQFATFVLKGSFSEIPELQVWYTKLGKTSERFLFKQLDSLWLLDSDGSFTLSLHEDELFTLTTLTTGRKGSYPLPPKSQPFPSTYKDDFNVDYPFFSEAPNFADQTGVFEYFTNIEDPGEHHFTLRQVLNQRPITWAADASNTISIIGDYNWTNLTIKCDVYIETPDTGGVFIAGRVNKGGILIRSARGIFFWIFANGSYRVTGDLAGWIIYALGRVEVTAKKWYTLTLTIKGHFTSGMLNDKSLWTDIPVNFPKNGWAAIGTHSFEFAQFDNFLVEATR
Consider `CCOc1ccc(-c2c(C)nn3c(C)c(C(=O)NCC(C)c4ccccc4)cnc23)cc1OCC` (stereo not given), for which the “activation” value is inactive: -22.2%. Turning to `Cc1ccc(-n2nc(CO)c(C(=O)NCCc3ccccc3)n2)cc1C`, the “activation” value was inactive: 5.66%. Under `COc1cc(-c2noc(-c3nnn(-c4ccc(Cl)cc4)c3C)n2)cc(OC)c1OC` stands inactive: -15%; under `CCc1ccc(N2C(=O)CS(=O)(=O)C23C(=O)N(Cc2ccccc2)c2ccccc23)cc1` (stereo not given), inactive: -20%; under `CC(=O)c1ccc(NC(=O)C2CCCN(S(=O)(=O)c3cn(C)cn3)C2)cc1` (stereo not given), inactive: -0.728%. As for `CCc1cccc(C)c1Nc1c(-c2ccc(N3CCOCC3)cc2)nc2ncccn12`, the figure is inactive: -3.79%. In the case of `CCCc1nn(C)c2c(=O)[nH]c(-c3cc(S(=O)(=O)N4CCN(C)CC4)ccc3OCC)nc12`, the “activation” value was inactive: -12.1%.

Turning to `O=C(Cn1c(=O)n(-c2ccc(F)cc2)c(=O)c2sccc21)Nc1cccc(C(F)(F)F)c1`, the “activation” value was inactive: -8.32%.

For the compound `Cc1cc(C)cc(OCC(=O)Nc2cccc(-c3nc4ccccc4[nH]3)c2)c1`, the “activation” value was inactive: -11.8%. Under `COc1ccc(-n2nc3c(c2NC(=O)C(=O)N2CCN(C)CC2)CSC3)cc1` stands inactive: -7.73%; under `Cc1c2cnn(CC(=O)Nc3ccc(F)cc3F)c(=O)c2c(C)n1Cc1cccc(Cl)c1`, inactive: -14%. As for `Cc1ccc(NC(=O)C2CCCN(c3nnc(C)c4c(C)n(-c5ccccc5)nc34)C2)cc1Cl` (stereo not given), the “activation” value is inactive: -4.26%. As for `CCOC(=O)c1cc2c(=O)n3ccccc3nc2n(Cc2ccco2)c1=NC(=O)c1ccccc1OC`, the figure is inactive: -20.6%; as for `CC(C)NC(=O)c1cc2c(Cl)nc3ccccc3c2s1`, inactive: -24.6%. Under `CCC(=O)N1CCc2cc(S(=O)(=O)CCC(=O)NCc3ccc(F)cc3)ccc21` stands inactive: -14%; under `COc1ccc(Cn2c(C(=O)O)c(CNCCc3ccccc3Cl)c3ccc(C)cc32)cc1`, inactive: -2.23%; under `COc1cccc(CNC(=O)Cn2c(=O)oc3cc(S(=O)(=O)N4CCC(C)CC4)ccc32)c1`, inactive: -15.8%.

As to `Cc1ccc(-n2nc3c(=O)n(C(C)C(=O)O)nc(C)c3c2C)cc1` (stereo not given), the “activation” value was inactive: 2.71%. Under `Cc1ccc(Cl)cc1NC(=O)Cn1c(=O)n(CCC(=O)N2CCc3ccccc3C2)c(=O)c2ccccc21` stands inactive: 0.733%; under `CCOc1ccc(NC(=O)Cn2cc(C(=O)c3ccc(C)c(C)c3)c(=O)c3cc(F)ccc32)cc1`, inactive: -8.15%. Under `Cc1ccc(CNC(=O)c2ccc3c(c2)N(Cc2cccc(Cl)c2)C(=O)CS3)cc1` stands inactive: -0.41%.

As for `Cc1cc(O)c(C(=O)c2cnc3c(c2)COc2ccccc2-3)cc1Cl`, the “activation” value is inactive: -11.2%. As for `CCN(c1ccc(C)cc1C)S(=O)(=O)c1nnc(NC(=O)CC(C)C)s1`, the figure is inactive: -15.9%. As for `COc1cc(NC(=O)CSc2nc3nc(C)c(Cc4ccccc4)c(C)n3n2)cc(OC)c1`, the figure is inactive: -5.83%; as for `CCOc1ccc2nc(N3CCCC(C(=O)NCCc4ccc(SC)cc4)C3)sc2c1` (stereo not given), inactive: -12.5%; as for `COCCNC(=O)C(=O)Nc1c2c(nn1-c1ccccc1)CS(=O)(=O)C2`, inactive: -14.1%. In the case of `Cc1ccccc1NC(=O)CSc1nc2ccc(NC(=O)COc3ccccc3F)cc2s1`, the “activation” value is inactive: -13.5%.

On to `COc1cc(OC)c(NC(=O)Cn2c(=O)cc(C(F)(F)F)c3c(C)nn(C)c32)cc1Cl`, for which the “activation” value is inactive: -8.36%. As for `CCc1ccccc1NC(=O)c1cnn2c(C(F)(F)F)cc(-c3ccc(OC)c(OC)c3)nc12`, the figure is inactive: 4.2%; as for `COc1ccccc1CNc1nc(-c2ccco2)nn1S(=O)(=O)c1ccc(Cl)cc1`, inactive: -14.7%. As for `COc1cc(C(=O)Nc2ccc(-c3cc(C(F)(F)F)nn3-c3ccccc3)cc2)cc(OC)c1OC`, the figure is inactive: -14.4%; as for `CCOC(=O)c1cnn(-c2cccc(F)c2)c1C1CCNCC1`, inactive: -0.123%. Under `COc1ccccc1OCc1ccc(C(=O)Nc2ccc(C)c(C)c2)o1` stands inactive: -11.6%; under `Cc1cccc(NC(=O)Cn2nc(N3CCN(c4ccccc4)CC3)ccc2=O)c1C`, inactive: -6.75%. Regarding `CCOC(=O)c1c(C)sc(-c2c(-c3cc(C)ccc3C)[nH]c3c2c(=O)[nH]c(=O)n3C)c1O`, the “activation” value is inactive: -14.7%. Take `CCOc1ccc(CCNC(=O)Cn2nc(C)c3c(C)n(-c4ccccc4)nc3c2=O)cc1OCC`: the “activation” value is inactive: -13.1%. As for `COc1cccc(CNC(=O)CCC(=O)N2CC3CCCN3c3ccccc32)c1` (stereo not given), the figure is inactive: -1.98%; as for `Cc1ccccc1NC(=O)CN(C)S(=O)(=O)c1cccc2nsnc12`, inactive: -15.6%. As for `O=C(NCc1ccc(F)cc1)C1CCN(C(=O)c2cnn(-c3ccccc3)c2-n2cccc2)CC1`, the figure is inactive: -13.8%; as for `O=C(Nc1ccccc1C(=O)O)c1cccc(S(=O)(=O)N2CCCC2)c1`, inactive: -9.83%; as for `CCOc1cc(C(=O)NCc2ccc3c(c2)CCN3C(=O)CC)cc(OCC)c1OCC`, inactive: -2.51%.

With `CCCCN(CC)CCCNC(=O)c1cn(C)c2ccc(S(=O)(=O)N(C)C3CCCCC3)cc2c1=O`, the “activation” value is inactive: -11.3%. As for `Cc1ccc(C(=O)N2CCN(c3ccccc3F)CC2)cc1NC(=O)c1nsc2ccccc12`, the figure is inactive: -12.8%; as for `COc1ccc(-c2[nH]ncc2C(=O)NCc2ccc(F)cc2)cc1`, inactive: -2.55%; as for `CCc1cccc(NC(=O)Cn2c(=O)n(CC3CCC(C(=O)NCCc4ccccc4)CC3)c(=O)c3ccccc32)c1` (stereo not given), inactive: 9.25%. Consider `CCC(Cn1nnc2ccccc2c1=O)NC(=O)Nc1cccc(Cl)c1` (stereo not given), for which the “activation” value was inactive: -10.3%. Under `O=C(CSC1=Nc2ccccc2N=C(c2ccc(F)cc2)C1)Nc1cc(F)ccc1F` stands inactive: -8.9%.

Take `COc1ccc(Cl)cc1NC(=O)CN1c2ccccc2S(=O)(=O)c2ccccc21`: the “activation” value was inactive: -17.1%. Under `COc1ccc(N2C(=O)C(CC(=O)Nc3ccc(F)cc3)N(CCC3=CCCCC3)C2=O)cc1` (stereo not given) stands inactive: -14.5%; under `COc1ccccc1CCNC(=O)Cc1c(C)c2c(cc(C)c3c(C)coc32)oc1=O`, inactive: 5.19%. As for `O=C(NC1CC(=O)N(c2cccc(F)c2)C1)C1CCCCC1` (stereo not given), the figure is inactive: 7.35%. As for `CN(C(=O)Nc1cn(C)c(=O)c2ccccc12)c1ccccc1`, the figure is inactive: -6.49%; as for `CCCN1C(=O)CN(C2CCCCCC2)C(=O)C1c1ccc(OCC)c(OC)c1` (stereo not given), inactive: 11.5%.

Regarding `COc1ccccc1CCNC(=O)c1cc2ccccn2n1`, the “activation” value is inactive: -15.3%. Under `COCCCNC(=O)c1c(NC(=O)c2cc(=O)c3cc(C)c(C)cc3o2)sc2c1CCCC2` stands inactive: -1.14%.

`CCCCNc1cc(NC2CCCCC2)c2c3c(onc13)-c1ccccc1C2=O`: the “activation” value was inactive: -8.94%. Under `COC(=O)c1cc2sccc2n1Cc1ccccc1` stands inactive: -1.51%; under `O=C(CCC1N=C2c3ccccc3N=C(SCc3cccc(F)c3)N2C1=O)NC1CCCCC1` (stereo not given), inactive: -13.5%; under `CC1=C(C(=O)Nc2ccccc2Cl)C(c2cccs2)n2ncnc2N1` (stereo not given), inactive: 10.8%. As for `O=[N+]([O-])c1ccc(O)c2ncccc12`, the figure is inactive: -5.37%; as for `Cc1ccc(SCC(=O)Nc2cccc(-c3nc4cc(Cl)ccc4o3)c2C)cc1`, inactive: 0.203%; as for `CCCOc1ccc(CNC(=O)C2CCN(c3nc4ccccc4nc3C(F)(F)F)CC2)cc1`, inactive: -15.3%.

As to `CCn1cc2nc(SCc3cccc(OC)c3)n(Cc3ccc(Cl)cc3)c(=O)c2n1`, the “activation” value was inactive: 1.69%. With `O=S(=O)(NCc1ccccc1)c1ccc2[nH]c3c(c2c1)CCCCC3`, the “activation” value is inactive: -40.2%. As for `Cc1cc(NS(=O)(=O)c2ccc(NC(=O)COc3c(C)cc(Br)cc3C)cc2)no1`, the figure is inactive: -15%; as for `COc1cccc(NS(=O)(=O)c2ccc3[nH]cc(C(=O)NC4CCCCC4)c(=O)c3c2)c1`, inactive: -10.2%. Take `CCOc1ccc(C(=O)Nc2ccc(C(=O)OCc3cc(=O)n4nc(CC)sc4n3)cc2)cc1`: the “activation” value was inactive: -5.02%. Under `COC(=O)c1ccc(NC(=O)N2CCC(CN3CCc4ccccc4C3)CC2)cc1` stands inactive: -1.92%; under `COc1ccc(/C=C/C(=O)N2CCC(c3nc4ccccc4o3)CC2)cc1`, inactive: -4.51%. As for `COc1ccc(NC(=O)CSc2ccc(-c3cccs3)nn2)cc1`, the figure is inactive: 0.266%; as for `COc1cccc(C(=O)Nc2cc(-c3ccccc3)nn2-c2ccccc2)c1`, inactive: -8.36%. As for `CC(=O)Oc1ccc(C(c2ccc(OC(C)=O)cc2)c2ccccn2)cc1`, the figure is inactive: -10.8%; as for `O=C(COc1ccc2oc3c(c2c1)CCCC3)Nc1ccc(Cl)cc1`, inactive: -7.7%; as for `CCOc1ccc(-c2c(C)nn3c(-c4ccccc4)c(C(=O)NCCOC)cnc23)cc1OCC`, inactive: -20%. Take `CCOc1ccc(N(CC)S(=O)(=O)N2CCCC(C(=O)Nc3ccc(NC(C)=O)cc3)C2)cc1` (stereo not given): the “activation” value was inactive: -22.8%. As for `CN(C)C(=O)COC(=O)Cc1ccc(OC(=O)c2ccc(N=C(N)N)cc2)cc1`, the figure is inactive: -21.1%.

With `Cc1ccc(S(=O)(=O)N2CCCc3cc(NC(=O)c4ccc(F)c(F)c4)ccc32)cc1`, the “activation” value was inactive: -2.08%. Under `CCOC(=O)c1ccc(NS(=O)(=O)c2cn(C)c(C)n2)cc1` stands inactive: -10.1%; under `CCS(=O)(=O)c1nc(S(=O)(=O)c2ccc(C)cc2)c(NCc2ccc(Cl)cc2)s1`, inactive: -15.4%. As for `COc1cccc(N2C(=O)C(CC(=O)Nc3ccc(F)cc3)N(CCC3=CCCCC3)C2=O)c1` (stereo not given), the figure is inactive: -3.83%; as for `CCc1ccc(NC(=O)CC2C(=O)N(c3ccc(C)cc3)C(=O)N2CCc2ccncc2)cc1` (stereo not given), inactive: -20.3%; as for `O=C1C2=C(Nc3ccccc3SC2c2ccc(Cl)c(Cl)c2)c2ccccc21` (stereo not given), inactive: -10.9%.

Regarding `COc1cccc(NC(=O)CN2C(=O)COc3ccc(S(=O)(=O)N4CCCCCC4)cc32)c1`, the “activation” value was inactive: -1.57%. Under `CCOc1ccc(NC(=O)Cn2cc(C(=O)c3ccc(OCC)cc3)c(=O)c3cc4c(cc32)OCCO4)cc1` stands inactive: -7.1%.

On to `COc1ccccc1Cn1c(CNS(=O)(=O)c2ccc(CC(C)C)cc2)nc2cccnc21`, for which the “activation” value was inactive: -1.81%. Under `COc1ccc(NC(=O)N(C(C)C)C2CCN(C(C)=O)CC2)c(OC)c1` stands inactive: -13.9%. Take `Cc1ccc(CCNC(=O)c2cc3cc4cc(C)ccc4nc3s2)cc1`: the “activation” value is inactive: -18.7%. Under `Cc1cc(SCC(=O)Nc2ccc(Cl)cc2)nc2ccccc12` stands inactive: -9.4%.

On to `CCc1ccc(-c2cc(C)no2)cc1S(=O)(=O)Nc1ccc(Cl)cn1`, for which the “activation” value is inactive: 7.29%. Under `Cc1ccc(Cn2cc(C(=O)c3ccc(C)cc3)c(=O)c3ccc(C)nc32)cc1` stands inactive: -14.6%. As for `CC(=O)N1CCCc2cc(S(=O)(=O)N3CCCC(C(=O)NCc4ccccc4)C3)ccc21` (stereo not given), the figure is inactive: -20.7%; as for `Cc1cccc(NC(=O)CSc2cn(CC(=O)N3CCCC3)c3ccccc23)c1C`, inactive: -18.2%; as for `Cc1cccc(C)c1OCC(=O)N1CCC(c2nc3ccccc3o2)CC1`, inactive: -14.5%. As for `Nc1c(C(=O)NCc2ccc3c(c2)OCO3)nnn1CC(=O)Nc1ccc(Br)cc1`, the figure is inactive: -12%.

Regarding `COc1ccc(NC(=O)CN(C)S(=O)(=O)c2ccc(C(=O)N3CCOCC3)s2)cc1`, the “activation” value was inactive: -2.57%.
